From the supplement of paper PMC7826260
Some of the results follow. The data describe in vitro nicking of single-stranded DNA by Rep domains at 3 µM enzyme and 37 °C for 1 h; the strands have 90 letters, of which the middle is given. Numbers give uncut DNA relative to the enzyme-free pool, as log2; uncut sequences lie near 0, cut ones below; no hit call is given. Reads are scaled to the total; values above 0 arise when much of the pool is cut.

Each sequence was assayed on T1, Rep nickase domain of tomato golden mosaic virus (assay: uncleaved DNA left, log2 of reads against the no-enzyme library (log2 ratio); higher = less cleavage (more negative = more Rep cleavage of the k-mer); sequences stand for … in CTCGTCCG…ACCGGAGA).
T1 sequence (residues 1-124 of Rep, tag left off): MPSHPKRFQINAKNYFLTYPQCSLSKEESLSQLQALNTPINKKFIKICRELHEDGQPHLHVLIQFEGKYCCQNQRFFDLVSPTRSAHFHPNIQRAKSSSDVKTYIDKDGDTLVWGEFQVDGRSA
Description: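 A pool of 90-nt single-stranded DNAs with seven random bases just before the constant AC of the nick site (name = the seven bases) was cut by 3 µM recombinant His6-SUMO-tagged Rep nickase domain (300 nM DNA, 50 mM HEPES pH 8.0, 50 mM NaCl, 1 mM MnCl2, 1 h, 37 °C, three replicates). Uncut DNA was amplified and sequenced.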

Row | Sequence | uncleaved DNA left (log2)
1 | CAATTGA | -0.0356
2 | TTGCGAA | -0.0522
3 | AGTAGGG | 0.152
4 | GGAGTCG | 0.18
5 | TGCAGAC | -0.0745
6 | CTTACAT | 0.00323
7 | GTACGGT | 0.106
8 | CATTACG | 0.0103
9 | GGTCGTG | 0.0624
10 | TCGTTAA | -0.129
11 | GCCTGTG | -0.00492
12 | TGTCGAA | -0.0736
13 | CGGGTGC | 0.0241
14 | TCGCCGT | -0.166
15 | CACGTGC | 0.0102
16 | GATATTA | 0.129
17 | TAGTGAC | -0.00146
18 | GACTATG | -0.0953
19 | TGTGCAG | -0.224
20 | ACCGACT | 0.227

Row | Sequence | uncleaved DNA left (log2)
21 | AACTAAC | -0.0751
22 | GGTACTG | -0.00559
23 | GGGCAGC | -0.0425
24 | CTTCGCT | -0.0632
25 | CGAGTTC | -0.0696
26 | TCGCCAG | -0.0571
27 | CGGCGGG | 0.0338
28 | AACCGTT | -0.116
29 | CTTCATC | -0.0571
30 | TACAGCG | -0.128
31 | ATAGTTT | -0.0666
32 | CTCGTAC | 0.132
33 | GCGTATA | 0.187
34 | GTATCCG | -0.00337
35 | TCTCACG | -0.0795
36 | ACACATT | 0.0393
37 | ATGCGGC | -0.0744
38 | CTTTATA | -0.052
39 | GTTGTTA | -0.135
40 | GGAGAGG | 0.223
